A lower IC50 marks a more sensitive line; a fit beyond the top or the lowest dose is shown as a bound at that dose. For AUC the same curve is integrated over the 256-fold range of doses and scaled to a fraction: 1 means no effect, lower means more sensitive. For part of these data: The top dose, if marked as inferred, was derived from the fitted curves, not read from the paper. For part of these data: Where an entry number is given, a second screen of the drug exists; the two often differ.
Experiments:
Assay in all cases: Viability of human cancer cell lines after 72 h of drug (GDSC screen)
MP470 = compound: S=C(NCc1ccc2c(c1)OCO2)N1CCN(c2ncnc3c2oc2ccccc23)CC1 [MP470]; conditions: top dose 20 µM; top dose inferred
Experimental: (§1)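 Human cancer cell lines in 384-well plates, medium with 10% serum, drug for 72 h over a 256-fold dose range (nine 2-fold or five 4-fold steps up to the top dose). Adherent lines were fixed and stained with the nucleic acid dye Syto60, suspension lines read with resazurin; signal relative to control wells, capped at 0 and 100%. One two-parameter sigmoid per drug and line, fitted in a mixed model over all curves with the slope shared within a line.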

AUY922 = compound: CCNC(=O)c1noc(-c2cc(C(C)C)c(O)cc2O)c1-c1ccc(CN2CCOCC2)cc1 [AUY922]; conditions: top dose 0.256 µM; top dose inferred
Experimental: as §1

T0901317 = compound: O=S(=O)(c1ccccc1)N(CC(F)(F)F)c1ccc(C(O)(C(F)(F)F)C(F)(F)F)cc1 [T0901317]; conditions: top dose 10.24 µM; top dose inferred
Experimental: as §1

Gemcitabine = compound: Nc1ccn([C@@H]2O[C@H](CO)[C@@H](O)C2(F)F)c(=O)n1 [Gemcitabine]; conditions: top dose 1.024 µM
Experimental: as §1

LFM-A13 = compound: C/C(O)=C(\C#N)C(=O)Nc1cc(Br)ccc1Br [LFM-A13]; conditions: top dose 16 µM; top dose inferred
Experimental: as §1

KIN001-270 = compound: Cc1ccc(Nc2cc(-c3cccc(N4C(=O)c5ccccc5C4=O)c3)ncn2)cc1NS(C)(=O)=O [KIN001-270]; conditions: top dose 20 µM; top dose inferred
Experimental: as §1

TW-37 = compound: CC(C)c1ccccc1Cc1cc(C(=O)Nc2ccc(S(=O)(=O)c3ccccc3C(C)(C)C)cc2)c(O)c(O)c1O [TW-37]; conditions: top dose 5 µM
Experimental: as §1

Bicalutamide = compound: CC(O)(CS(=O)(=O)c1ccc(F)cc1)C(=O)Nc1ccc(C#N)c(C(F)(F)F)c1 [Bicalutamide]; conditions: top dose inferred
Experimental: as §1

[1] = top dose 1.024 µM, screen: GDSC drug entry 150
[2] = top dose 10 µM, screen: GDSC drug entry 1502

Cell Line | AUC (MP470) | IC50 (MP470) [µM] | AUC (AUY922) | IC50 (AUY922) [µM] | AUC (T0901317) | IC50 (T0901317) [µM] | AUC (Gemcitabine) | IC50 (Gemcitabine) [µM] | AUC (LFM-A13) | IC50 (LFM-A13) [µM] | AUC (KIN001-270) | IC50 (KIN001-270) [µM] | AUC (TW-37) | IC50 (TW-37) [µM] | AUC (Bicalutamide; [1]) | IC50 (Bicalutamide; [1]) [µM] | AUC (Bicalutamide; [2]) | IC50 (Bicalutamide; [2]) [µM]
OSC-19 (head and neck, adherent) | 0.96 | > 20 | 0.5 | 0.016 | 0.987 | > 10.2 | 0.643 | 0.162 | 0.985 | > 16 | 0.979 | > 20 | 0.603 | 0.608 | 0.987 | > 1.02 | 0.983 | > 10
NCI-H2405 (lung adenocarcinoma, adherent) | 0.959 | > 20 | 0.485 | 0.0145 | 0.985 | > 10.2 | 0.343 | 0.0223 | 0.97 | > 16 | 0.98 | > 20 | 0.603 | 0.618 | 0.984 | > 1.02 | 0.969 | > 10
NCI-H1299 (large cell lung carcinoma, adherent) | 0.982 | > 20 | 0.413 | 0.00875 | 0.98 | > 10.2 | 0.156 | 0.00412 | 0.932 | > 16 | 0.979 | > 20 | 0.514 | 0.345 | 0.983 | > 1.02 | 0.9 | > 10
HPAF-II (pancreas, adherent) | 0.823 | 16.9 | 0.843 | > 0.256 | 0.954 | > 10.2 | 0.663 | 0.21 | 0.936 | > 16 | 0.981 | > 20 | 0.482 | 0.276 | 0.979 | > 1.02 | 0.978 | > 10
TCCSUP (bladder, adherent) | 0.969 | > 20 | 0.969 | > 0.256 | 0.975 | > 10.2 | 0.864 | > 1.02 | 0.972 | > 16 | 0.98 | > 20 | 0.485 | 0.283 | 0.965 | > 1.02 | 0.98 | > 10
SISO (cervix, adherent) | 0.985 | > 20 | 0.83 | 0.151 | 0.986 | > 10.2 | 0.209 | 0.00931 | 0.965 | > 16 | 0.988 | > 20 | 0.311 | 0.0949 | 0.988 | > 1.02 | 0.957 | > 10
OVISE (ovary, adherent) | 0.936 | > 20 | 0.698 | 0.0698 | 0.981 | > 10.2 | 0.61 | 0.142 | 0.942 | > 16 | 0.978 | > 20 | 0.536 | 0.405 | 0.981 | > 1.02 | 0.971 | > 10
NCI-H1651 (lung adenocarcinoma, adherent) | 0.957 | > 20 | 0.558 | 0.0233 | 0.987 | > 10.2 | 0.373 | 0.0277 | 0.977 | > 16 | 0.983 | > 20 | 0.635 | 0.762 | 0.981 | > 1.02 | 0.969 | > 10
ChaGo-K-1 (non-small cell lung carcinoma, adherent) | 0.981 | > 20 | 0.661 | 0.0482 | 0.976 | > 10.2 | 0.713 | 0.284 | 0.978 | > 16 | 0.967 | > 20 | 0.532 | 0.388 | 0.984 | > 1.02 | 0.983 | > 10
LCLC-103H (large cell lung carcinoma, adherent) | 0.617 | 2.53 | 0.462 | 0.0127 | 0.99 | > 10.2 | 0.272 | 0.0155 | 0.95 | > 16 | 0.973 | > 20 | 0.451 | 0.232 | 0.99 | > 1.02 | 0.99 | > 10
NCI-H2170 (lung squamous cell carcinoma, adherent) | 0.94 | > 20 | 0.725 | 0.0722 | 0.983 | > 10.2 | 0.198 | 0.00768 | 0.971 | > 16 | 0.982 | > 20 | 0.67 | 0.954 | 0.987 | > 1.02 | 0.982 | > 10
PL18 (pancreas, adherent) | 0.936 | > 20 | 0.55 | 0.0218 | 0.978 | > 10.2 | 0.345 | 0.0239 | 0.987 | > 16 | 0.974 | > 20 | 0.799 | 2.37 | 0.986 | > 1.02 | 0.986 | > 10
SW1088 (glioma, adherent) | 0.974 | > 20 | 0.686 | 0.0623 | 0.981 | > 10.2 | 0.79 | 0.612 | 0.946 | > 16 | 0.972 | > 20 | 0.583 | 0.566 | 0.968 | > 1.02 | 0.935 | > 10
OAW-28 (ovary, adherent) | 0.924 | > 20 | 0.854 | > 0.256 | 0.977 | > 10.2 | 0.487 | 0.0582 | 0.953 | > 16 | 0.977 | > 20 | 0.522 | 0.364 | 0.982 | > 1.02 | 0.951 | > 10
RERF-GC-1B (stomach, adherent) | 0.937 | > 20 | 0.59 | 0.029 | 0.948 | > 10.2 | 0.937 | > 1.02 | 0.976 | > 16 | 0.951 | > 20 | 0.442 | 0.212 | 0.981 | > 1.02 | 0.97 | > 10
COLO-792 (melanoma, adherent) | 0.277 | 0.296 | 0.741 | 0.0772 | 0.985 | > 10.2 | 0.977 | > 1.02 | 0.935 | > 16 | 0.988 | > 20 | 0.499 | 0.31 | 0.986 | > 1.02 | 0.986 | > 10
OVCAR-5 (ovary, adherent) | 0.982 | > 20 | 0.555 | 0.0233 | 0.982 | > 10.2 | 0.428 | 0.0389 | 0.954 | > 16 | 0.979 | > 20 | 0.615 | 0.691 | 0.981 | > 1.02 | 0.959 | > 10
PC-14 (lung adenocarcinoma, adherent) | 0.96 | > 20 | 0.551 | 0.0216 | 0.99 | > 10.2 | 0.545 | 0.0836 | 0.899 | > 16 | 0.944 | > 20 | 0.529 | 0.37 | 0.989 | > 1.02 | 0.983 | > 10
BFTC-909 (kidney, adherent) | 0.962 | > 20 | 0.584 | 0.027 | 0.98 | > 10.2 | 0.397 | 0.0336 | 0.962 | > 16 | 0.968 | > 20 | 0.417 | 0.186 | 0.988 | > 1.02 | 0.943 | > 10
Hs-578-T (breast, adherent) | 0.984 | > 20 | 0.986 | > 0.256 | 0.987 | > 10.2 | 0.984 | > 1.02 | 0.986 | > 16 | 0.984 | > 20 | 0.323 | 0.097 | 0.987 | > 1.02 | 0.97 | > 10
C32 (melanoma, adherent) | 0.903 | > 20 | 0.671 | 0.0495 | 0.982 | > 10.2 | 0.912 | > 1.02 | 0.974 | > 16 | 0.982 | > 20 | 0.78 | 2.2 | 0.986 | > 1.02 | 0.984 | > 10
SNU-423 (liver, adherent) | 0.917 | > 20 | 0.434 | 0.0103 | 0.95 | > 10.2 | 0.463 | 0.0498 | 0.969 | > 16 | 0.911 | > 20 | 0.53 | 0.383 | 0.983 | > 1.02 | 0.956 | > 10
MFE-319 (endometrium, adherent) | 0.885 | > 20 | 0.567 | 0.0243 | 0.967 | > 10.2 | 0.565 | 0.0956 | 0.979 | > 16 | 0.978 | > 20 | 0.614 | 0.638 | 0.985 | > 1.02 | 0.987 | > 10
LCLC-97TM1 (large cell lung carcinoma, adherent) | 0.738 | 6.47 | 0.435 | 0.0104 | 0.936 | > 10.2 | 0.102 | < 0.004 | 0.956 | > 16 | 0.942 | > 20 | 0.657 | 0.893 | 0.98 | > 1.02 | 0.978 | > 10
LC-1-sq (lung squamous cell carcinoma, adherent) | 0.947 | > 20 | 0.944 | > 0.256 | 0.971 | > 10.2 | 0.739 | 0.353 | 0.984 | > 16 | 0.985 | > 20 | 0.858 | > 5 | 0.982 | > 1.02 | 0.983 | > 10
CAL-12T (non-small cell lung carcinoma, adherent) | 0.821 | 13.5 | 0.414 | 0.00901 | 0.927 | > 10.2 | 0.23 | 0.00943 | 0.948 | > 16 | 0.965 | > 20 | 0.703 | 1.26 | 0.982 | > 1.02 | 0.974 | > 10
LU-99A (large cell lung carcinoma, adherent) | 0.939 | > 20 | 0.622 | 0.0346 | 0.98 | > 10.2 | 0.884 | > 1.02 | 0.975 | > 16 | 0.983 | > 20 | 0.46 | 0.243 | 0.987 | > 1.02 | 0.978 | > 10
OVCAR-8 (ovary, adherent) | 0.978 | > 20 | 0.539 | 0.0202 | 0.984 | > 10.2 | 0.157 | 0.00668 | 0.986 | > 16 | 0.952 | > 20 | 0.51 | 0.332 | 0.99 | > 1.02 | 0.989 | > 10
SW156 (kidney, adherent) | 0.919 | > 20 | 0.922 | > 0.256 | 0.986 | > 10.2 | 0.344 | 0.0224 | 0.982 | > 16 | 0.972 | > 20 | 0.514 | 0.344 | 0.984 | > 1.02 | 0.976 | > 10
NCI-H358 (lung adenocarcinoma, adherent) | 0.915 | > 20 | 0.56 | 0.0237 | 0.982 | > 10.2 | 0.318 | 0.0186 | 0.981 | > 16 | 0.962 | > 20 | 0.699 | 1.21 | 0.983 | > 1.02 | 0.979 | > 10

— the supplement of paper PMC4967469
